We go through 6 molecules from patent US20250075006A1 (SHANDONG SIMCERE BIOPHARMACEUTICAL, published 2025).

Where a chain is given by its changes, count along the chain named. Like-named read-outs stand apart in the source and are kept apart here.

Experiment [1] has as its target T1, human GUCY2C protein, full length, on cells (human, UniProt P25092 24-1073).
T1 construct: whole, on cells; also called endogenous tumor cells HT55
Briefly: FACS on 293T-hGUCY2C cells, MFI. The protocol: Then a complete medium was added to stop the digestion, and the cells were blown into a single cell suspension. After counting, the cells were centrifuged, and the cell pellet was resuspended to 2×10⁶ cells/mL in an FACS buffer (PBS+2% fetal bovine serum), and added to a 96-well FACS reaction plate at 100 μL/well. The plate was centrifuged, and the supernatant was discarded. An antibody sample to be tested (diluted in a 5-fold gradient from a starting concentration of 100 nM) was added at 50 μL/well and uniformly mixed with the cells, and the mixture was incubated at 4° C. for 1 h. […] The results were tested and analyzed by FACS (FACS Canto™, purchased from BD) after the plate was centrifuged and washed 3 times with a PBS buffer and resuspended with 100 μL of PBS. Data analysis was performed by software (FlowJo) to obtain the mean fluorescence intensity (MFI) of the cells. Then, analysis was performed by software (GraphPad Prism8), data were fitted, and EC50 values were calculated. As shown in A-C in FIG. 14, PF1608-hIgG1 binds strongly to GUCY2C at the protein level, but weakly at the cellular level. The humanized antibodies of the present application are all capable of binding effectively to recombinant cells expressing human GUCY2C protein and substantially maintain the equivalent binding ability of the recombinant antibodies.

Experiment [2] has as its target T2, Human GUCY2C ECD (his-tagged human GUCY2C protein extracellular domain fusion protein) (human, UniProt P25092 partial chain).
T2 construct: also called human GUCY2C-his; human GUCY2C-His
Briefly: SPR Biacore, antibody on Protein A, antigen injected. The protocol: The strength of antibody-antigen binding was assayed with a BIAcore 8K instrument using a Protein A capture method. First, Protein A was immobilized onto a CM4 chip (purchased from GE, BR-1005-34) using an amino coupling method. According to the instruction of the Amine Coupling Kit (purchased from GE, BR100633), NHS and EDC were mixed with HBS-EP+pH 7.4 as a mobile phase to activate the chip for about 600 s; the Protein A was diluted to 50 μg/mL with 10 mM sodium acetate (pH 4.5) and injected for 600 s, and finally, the remaining activated sites were blocked with ethanolamine. Then, the affinity of the antibody for the antigen was assayed using a multi-cycle kinetic method; in each cycle, first, the antibody to be tested was captured using the Protein A chip, and then a single concentration of antigen protein was injected. The association and dissociation processes of the antibody with the antigen protein were recorded, and finally, the chip was regenerated using Glycine pH 1.5, wherein the mobile phase was HBS-EP+(10 mM HEPES, 150 mM NaCl, 3 mM EDTA, 0.05% surfactant P20), the flow rate was 30 μL/min, the regeneration time was 30 s, and the assay temperature was 25° C. Finally, according to a 1:1 binding model, the data were analyzed, and the antibody-antigen binding kinetics parameters, including the association rate constant Ka, the dissociation rate constant Kd, the equilibrium dissociation constant KD, and the maximum binding signal Rmax, were fitted.
(§1) After the finally obtained various humanized antibodies were expressed and purified, the affinities of the humanized antibodies for the human and monkey GUCY2C proteins were separately assayed according to the method in Example 4.6.

Experiment [3] concerns the target T2, Human GUCY2C ECD (his-tagged human …). Kind of experiment: ELISA, plate coated with human GUCY2C-his, OD450. The protocol:
To assay the binding activity of the humanized antibodies to human GUCY2C-his protein, a human GUCY2C-his protein was diluted with PBS to a final concentration of 2 μg/mL and then added to a 96-well ELISA plate at 50 μL/well. The plate was sealed with a plastic film and incubated at 4° C. overnight. The next day, the plate was washed 2 times with PBST, and a blocking buffer [PBS+2% (w/w) BSA] was added for blocking at room temperature for 2 h. The blocking buffer was discarded, and the plate was washed 2 times with PBST. An antibody to be tested or a control antibody diluted in a 1:3 gradient from a starting concentration of 100 nM was added at 50 μL/well. After incubation at 37° C. for 1 h, the plate was washed 3 times with PBST. A horseradish peroxidase (HRP)—labeled secondary antibody (purchased from Merck, Cat. No. AP113P) was added for incubation at 37° C. for 1 h, and the plate was washed 5 times with PBST. A TMB substrate was added at 50 µL/well for incubation at room temperature for 5-10 min, and then a stop solution (1.0 M HCl) was added at 50 μL/well. OD450 nm values were read using an ELISA plate reader (Multimode Plate Reader, EnSight, purchased from Perkin Elmer).
In general terms: An ELISA detects its analyte on a solid surface through an enzyme-linked reagent.

Experiment [4] concerns the target T3, Cyno GUCY2C ECD (his-tagged cynomolgus monkey GUCY2C protein extracellular domain fusion protein) (cynomolgus monkey, UniProt P25092 partial chain (human entry)).
T3 construct: also called monkey GUCY2C-his; monkey GUCY2C-His
T3 chain: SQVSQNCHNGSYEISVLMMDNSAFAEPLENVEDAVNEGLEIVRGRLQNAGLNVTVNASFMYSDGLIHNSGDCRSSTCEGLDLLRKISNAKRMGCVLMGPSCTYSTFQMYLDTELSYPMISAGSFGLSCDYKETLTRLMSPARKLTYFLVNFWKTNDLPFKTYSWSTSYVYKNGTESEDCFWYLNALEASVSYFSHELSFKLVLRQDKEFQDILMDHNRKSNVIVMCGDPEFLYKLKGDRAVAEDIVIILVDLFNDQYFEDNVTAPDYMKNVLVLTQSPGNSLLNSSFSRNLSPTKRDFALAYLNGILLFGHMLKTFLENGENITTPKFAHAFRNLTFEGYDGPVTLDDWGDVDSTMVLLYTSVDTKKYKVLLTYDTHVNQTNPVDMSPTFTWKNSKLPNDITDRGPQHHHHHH
Briefly: ELISA, plate coated with monkey GUCY2C-his, OD450.

Experiment [5] deals with T2, Human GUCY2C ECD (his-tagged human …). Kind of experiment: BLI Gator, antibody on anti-human Fc probe, antigen in solution. As to the method:
(§2) Next, we measured the affinity of the recombinant antibody by another method, and the specific procedures were as follows: the binding strength of the antibody to the antigen was assayed by acquiring and analyzing the signal change of the reflection interference spectrum on the surface of the optical probe by using thin film interference technology. First, the probe was equilibrated for 300 s with HBS-T+pH 7.4 (0.02% tween) as the mobile phase. 2 μg/mL of the antibody to be tested was captured by an anti-human FC probe (purchased from ProbeLife, PL168-160003) for 240 s, and then antigen proteins with the concentration of 200 nM and diluted two-fold were injected. Kon for 300 s and Koff for 600 s. The association and dissociation processes of the antibody with the antigen protein were recorded, and finally, the chip was regenerated using Glycine pH 2.0 (purchased from GE), wherein the mobile phase was HBS-T+pH 7.4 (0.02% tween), the regeneration time was 5 s, and the assay temperature was 30° C. Finally, according to a 1:1 binding model, the data were analyzed, and the antibody-antigen binding kinetics parameters, including the association rate constant Ka, the dissociation rate constant Kd, the equilibrium dissociation constant KD, and the maximum binding signal Rmax, were fitted. The association rate (Ka), dissociation rate (Kd), and binding affinity (KD) of the recombinant antibodies with the human GUCY2C and monkey GUCY2C proteins are shown in Table 6.
as §1

Experiment [6] has as its target T3, Cyno GUCY2C ECD (his-tagged cynomolgus …). The experiment is described as above. The protocol: as §2, §1
For experiment [7] the target is unchanged. Briefly: ELISA, plate coated with monkey GUCY2C-his, OD450.
Experiment [8] deals with T1, human GUCY2C protein, full length, on …. Briefly: FACS on HT55 tumor cells (endogenous GUCY2C), MFI.
The target of experiment [9] is T3, Cyno GUCY2C ECD (his-tagged cynomolgus …). Kind of experiment: ELISA, plate coated with monkey GUCY2C-his, OD450.

B1: hu-Lab323H6-huFc (Fc fusion)
chain: EVQLVESGGGLVKPGGSLRLSCASSGRTSTIHRMGWFRQAPGKEREFVSSISRVSSTTYYADSVKGRFTISRDNAKNSVYLQMNSLRAEDTAVYYCAASEYEVSPGKSKYWGQGTMVTVSS[human IgG1 Fc with C220S (EU numbers) not listed]
Usually EC50 (read off the curve) stands for the concentration giving half of the maximal effect. The Kd is the concentration at which binding is half-saturated. Usually koff stands for a measure of how fast the partners let go of each other. As a reminder, the kon is the rate constant with which the complex forms. On to B1, for which the “EC50 (read off the curve)” value is around 3 nM in experiment [1], around 0.2 nM in experiment [3] and around 0.3 nM in experiment [4]. The figures for the Kd in [2], in experiment [5] and in [6] were 98.4 nM, 20.1 nM and 15.4 nM, respectively. Moreover, the off-rate constant (koff) in [2] was determined as 0.000134 s⁻¹; in experiment [5] it was 0.00116 s⁻¹; in experiment [6], 0.00047 s⁻¹. Further, the kon in experiment [2] was determined as 1360 M⁻¹ s⁻¹; in experiment [5], 57800 M⁻¹ s⁻¹; in [6], 30500 M⁻¹ s⁻¹.

B2: hu-Lab306H4-huFc (Fc fusion)
chain: EVQLVESGGGLVQPGGSLRLSCAASGFTLDDYAIGWFRQAPGKEREGVICLTSGGLPKYADSVKGRFTISRDNSKNTLYLQMNSLRAEDTAVYYCAASGATSRWNCPPQYDHWGQGTMVTVSS[human IgG1 Fc with C220S (EU numbers) not listed]
For the molecule B2, the “EC50 (read off the curve)” value in experiment [1] was around 2 nM; in [7] it was around 0.1 nM; in [8] it was around 1 nM. Moreover, the Kd worked out at 8.34 nM in experiment [2], 1.92 nM in experiment [5] and 1.53 nM in experiment [6]. The koff in experiment [2] turned out to be 0.000929 s⁻¹; in [5], 0.000513 s⁻¹; in [6], 0.000479 s⁻¹. Also, the kon in experiment [2] is 111000 M⁻¹ s⁻¹; in [5], 267000 M⁻¹ s⁻¹; in [6], 313000 M⁻¹ s⁻¹.

B3: hu-Lab322H3-huFc (Fc fusion)
chain: EVQLVESGGGLVQPGRSLRLSCAASVLNLDYYAITWFRQAPGKEREGVSCIQGRGTSTNYADSVKGRFTISRDRAKKSAYLQMNSLRAEDTALYYCAVRYVSYGRNTACGLLPESVDHWGQGTMVTVSS[human IgG1 Fc with C220S (EU numbers) not listed]
Consider B3, for which the “EC50 (read off the curve)” value was around 1 nM in experiment [1], around 0.06 nM in experiment [3] and around 0.08 nM in experiment [9]. The Kd in experiment [2] stood at 18.8 nM; in experiment [5], 0.717 nM; in experiment [6], 1.27 nM. Further, the values for the koff in experiment [2], in experiment [5] and in experiment [6] were 0.000155 s⁻¹, 0.000154 s⁻¹ and 0.000275 s⁻¹, respectively. In addition, the values for the kon in [2], in [5] and in experiment [6] were 8240 M⁻¹ s⁻¹, 215000 M⁻¹ s⁻¹ and 216000 M⁻¹ s⁻¹, respectively.

B4: hu-Lab322H4-huFc (Fc fusion)
chain: B3 chain with E1Q, V2L
With B4, the “EC50 (read off the curve)” value in experiment [1] is around 1 nM; in experiment [3], around 0.06 nM; in experiment [9], around 0.07 nM. The Kd in experiment [2] is 7.28 nM; in [5], 0.334 nM; in experiment [6], 0.529 nM. Further, the koff in [2] was 5.52e-05 s⁻¹; in experiment [5] it was 6.86e-05 s⁻¹; in experiment [6], 0.000109 s⁻¹. Further, the kon in experiment [2] was 7580 M⁻¹ s⁻¹; in experiment [5], 205000 M⁻¹ s⁻¹; in experiment [6], 207000 M⁻¹ s⁻¹.

B5: hu-Lab322H5-huFc (Fc fusion)
chain: B3 chain with L93T, M124Q
In the case of B5, the “EC50 (read off the curve)” value in experiment [1] is around 1 nM; in experiment [3] it was around 0.06 nM; in experiment [9], around 0.07 nM. Further, the Kd in [2] stood at 19.5 nM; in experiment [5], 0.782 nM; in experiment [6] it was 1.36 nM. Also, the koff amounted to 0.000159 s⁻¹ in experiment [2], 0.000173 s⁻¹ in [5] and 0.000285 s⁻¹ in experiment [6]. Besides, the figures for the kon in [2], in [5] and in experiment [6] were 8160 M⁻¹ s⁻¹, 221000 M⁻¹ s⁻¹ and 210000 M⁻¹ s⁻¹, respectively.

B6: hu-Lab322H6-huFc (Fc fusion)
chain: B3 chain with R87K, A88P
Consider B6, for which the concentration giving a half-maximal response (EC50 (read off the curve)) in [1] was around 1 nM; in experiment [3] it was around 0.06 nM; in experiment [9] it was around 0.07 nM. Moreover, the Kd in [2] was 18.7 nM; in [5], 0.797 nM; in experiment [6], 1.31 nM. Also, the values for the koff in experiment [2], in experiment [5] and in experiment [6] were 0.000159 s⁻¹, 0.000179 s⁻¹ and 0.000278 s⁻¹, respectively. The kon in experiment [2] came out at 8510 M⁻¹ s⁻¹; in [5], 224000 M⁻¹ s⁻¹; in [6] it was 212000 M⁻¹ s⁻¹.
